{"source": "PubChem BioAssay AID686978", "about": "(National Center for Advancing Translational Sciences (NCATS), 2013)", "note": "The whole screen tested about 420,000 compounds, of which about 64,000 (15%) were called active. Inconclusive results, whose numbers are uncertain, are shown with a selection of clear calls. The call rests on the fitted dose curve; in most records, active means well fitted inhibition curve with a large enough effect; inconclusive means small, poorly fitted or top-dose-only effect; inactive means flat fitted curve, though single readings scatter. Potencies of inconclusive entries are left out as doubtful fits. On the % scale 0 is the no-effect control and ±100 the full control effect; potency means the concentration at half of the fitted maximal effect; tags describe the fitted curve by direction and shape.", "data": [{"test": "qHTS for Inhibitors of human tyrosyl-DNA phosphodiesterase 1 (TDP1): qHTS in cells in absence of CPT; further: nearly all actives have a fitted effect of over 55% in size", "conditions": "DT40 Tdp1-/- hTDP1 cells, no CPT, ATP luminescence, 48 h; activity change, negative = growth inhibition: at 46.2 µM (top of the series) unless noted", "summary_of_the_method": "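Growth kinetics read by CellTiter-Glo luminescence after ≥48 hr at 37 °C. Cells: DT40 Tdp1-/- stably carrying human TDP1, 400 per well, compound exposure in the absence of CPT (DMSO vehicle).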", "values": [{"smiles": "CC1CCN(c2nc3nonc3nc2Nc2ccc(F)cc2)CC1", "Potency": "inconclusive [inhibitor, single point]"}, {"smiles": "O=C(Nc1cc(Cl)cc(Cl)c1)c1coc(=O)c(Br)c1", "Potency": "active: 11.6 µM"}, {"smiles": "CCCCCCNC(=O)c1c(O)c2cccc3c2n(c1=O)CCC3", "Potency": "active: 29.1 µM"}, {"smiles": "COc1ccc(Br)cc1C(=O)Nc1cccc(NC(=O)c2ccco2)c1", "Potency": "active: 18.4 µM"}, {"smiles": "COc1ccc(S(=O)(=O)NCCS(=O)(=O)N2CCN(c3ccccc3)CC2)cc1OC", "Potency": "inconclusive [inhibitor, single point]"}, {"smiles": "CCCCNC(=O)c1nc(-c2cc3ccccc3[nH]2)oc1-c1cccc(C(F)(F)F)c1", "Potency": "inconclusive [inhibitor, single point]"}, {"smiles": "Cc1cc2c3c(c1)C(C)CC(C)(C)N3C(=O)C2=C(C#N)C#N", "note": "(stereo unspecified)", "Potency": "inconclusive [inhibitor, single point]"}, {"smiles": "COc1ccc2ncccc2c1Cc1c(OC)ccc2ncccc12", "Potency": "active: 13 µM"}, {"smiles": "CCOc1cccc(CN2CCC(n3nccc3NC(=O)C3CC3)CC2)c1O", "Potency": "inactive"}, {"smiles": "COc1ccc(-n2nc(C(=O)NCC(=O)N3CCN(c4ccccc4OC)CC3)c3ccccc3c2=O)c(OC)c1", "Potency": "inconclusive [inhibitor, single point]"}, {"smiles": "COc1ccc(NC(=O)c2oc3ccccc3c2NC(=O)C23CC4CC(CC(C4)C2)C3)c(OC)c1", "Potency": "active: 23.1 µM"}, {"smiles": "Cc1ccc(NC(=O)COc2coc(CN3CCc4ccccc43)cc2=O)cc1Cl", "Potency": "active: 14.6 µM"}, {"smiles": "O=C(Cn1ncc2c1-c1ccccc1OC2)N1CCN(Cc2ccc3c(c2)OCO3)CC1", "Potency": "inconclusive [inhibitor, single point]"}, {"smiles": "OC(c1ccccc1)c1nc2ccccc2s1", "note": "(stereo unspecified)", "Potency": "inconclusive [inhibitor, single point]"}, {"smiles": "COc1ccc(CCN(Cc2ccc(C(C)C)cc2)S(=O)(=O)c2ccc(S(=O)(=O)N(C)C)cc2)cc1OC", "Potency": "inconclusive [inhibitor, partial curve]"}, {"smiles": "COc1ccc2c(c1)c(CC(=O)Nc1ccc(C(C)=O)cc1)c(C)n2C(=O)c1ccc(Cl)cc1", "Potency": "active: 16.4 µM"}, {"smiles": "CCc1cccc(CC)c1NC(=O)C(Cc1ccccc1)NS(=O)(=O)c1cccc2nsnc12", "note": "(stereo unspecified)", "Potency": "inconclusive [inhibitor, single point]"}, {"smiles": "CCOC(=O)c1cnn(-c2ccc(Cl)cc2)c1C1CCN(C(=O)OC(C)(C)C)CC1", "Potency": "inconclusive [inhibitor, single point]"}, {"smiles": "Cc1ccc(-c2nnc(SCC(=O)N/N=C/c3c(C)nn(-c4ccccc4)c3C)n2-c2ccccc2)cc1", "Potency": "inconclusive [inhibitor, single point]"}, {"smiles": "COC(=O)C1(C)CCc2cc(OC)ccc2C1=O", "note": "(stereo unspecified)", "Potency": "inactive"}, {"smiles": "CCc1ccc(NC(=O)CSc2nc3c(oc4ccccc43)c(=O)n2-c2cccc(C)c2)cc1", "Potency": "inconclusive [inhibitor, full curve]"}, {"smiles": "O=C(NCc1ccco1)C1CCC(CNS(=O)(=O)c2cccc3cccnc23)CC1", "note": "(stereo unspecified)", "activity change, negative = growth inhibition": "inconclusive: -31.7% [inhibitor]"}, {"smiles": "CCN(CC)CCn1c2ccc(Cl)cc2c2nc(C)sc21", "Potency": "active: 23.1 µM"}, {"smiles": "CCCCN(C(=O)c1cc2c(s1)CCC2)c1c(N)n(CC(C)C)c(=O)[nH]c1=O", "Potency": "inactive"}, {"smiles": "CC(=O)c1cccc(N2C(=O)C3C4CCC(C4=C(C)C)C3C2=O)c1", "note": "(stereo unspecified)", "Potency": "inconclusive [inhibitor, partial curve]"}, {"smiles": "O=C(COC(=O)C1CCCCC1)Nc1ccc([N+](=O)[O-])cc1", "Potency": "inactive"}, {"smiles": "CCOC(=O)Cn1nc(-c2ccc(Cl)cc2)ccc1=O", "Potency": "inconclusive [inhibitor, single point]"}, {"smiles": "CCc1cnc2c(c1SCc1ccccc1C)c(=O)n(C)c(=O)n2C", "Potency": "inconclusive [inhibitor, single point]"}, {"smiles": "Clc1ccccc1NN(Cc1ccncc1)c1ccccc1Cl", "Potency": "inconclusive [inhibitor, single point]"}, {"smiles": "Cc1ccc(CNc2nc3c([nH]2)c(=O)n(C)c(=O)n3C)cc1", "Potency": "inconclusive [inhibitor, single point]"}, {"smiles": "CCOc1ccc(CN(C)CC(=O)Nc2ccccc2C(=O)NC2CC2)cc1", "Potency": "inconclusive [inhibitor, single point]"}, {"smiles": "Cc1ccc(CNC(=O)CCCCCn2c(=O)c3sccc3n(CC(=O)Nc3ccc(C)c(F)c3)c2=O)cc1", "Potency": "inconclusive [inhibitor, single point]"}, {"smiles": "O=C(OCc1ccc(Cl)cc1)c1ccccc1C(=O)c1ccccc1", "Potency": "inactive"}, {"smiles": "CCn1c(=S)sc2c(=O)n(CC(=O)Nc3cccc(Br)c3)c(C)nc21", "Potency": "inconclusive [inhibitor, single point]"}, {"smiles": "CC(C)CN(CCCNC(=O)c1cc(=O)[nH]c2ccc(S(=O)(=O)N3CCCC3)cc12)CC(C)C", "Potency": "inactive"}, {"smiles": "CC(C)CC(Nc1ncnc2scc(-c3ccccc3)c12)C(=O)O", "note": "(stereo unspecified)", "Potency": "inactive"}, {"smiles": "CCN1C(C(=O)c2ccccc2)=C(OC(=O)COc2ccc(OC)cc2)c2ccccc2S1(=O)=O", "Potency": "active: 4.61 µM"}, {"smiles": "CCc1cccc(C)c1NC(=O)C1CCCO1", "note": "(stereo unspecified)", "Potency": "inactive"}, {"smiles": "CCCc1n[nH]c2c1/C(=N\\O)CCC2", "Potency": "inactive"}, {"smiles": "CCCCNC(=O)CCn1c(=O)c2ccccc2n(Cc2ccc(Cl)cc2)c1=O", "Potency": "inconclusive [inhibitor, single point]"}, {"smiles": "CC(C)(C)OC(=O)C[C@@H]1C/C=C\\C[C@@H](CC(=O)NCCO)C(=O)NC[C@H](c2ccccc2)OC1=O", "Potency": "inconclusive [inhibitor, single point]"}, {"smiles": "CCCCN(C)CCNC(=O)c1cc2c(=O)[nH]c3ccccc3c2n1C", "Potency": "inactive"}, {"smiles": "O=C(Nc1ccc(-c2nc3ccccc3o2)c(O)c1)c1cc(-n2cnnc2)ccc1Cl", "Potency": "inconclusive [inhibitor, single point]"}, {"smiles": "S=C(NCC1CCCO1)N1CCN(c2nc(-c3ccc(Cl)cc3)cs2)CC1", "note": "(stereo unspecified)", "Potency": "active: 14.6 µM"}, {"smiles": "CN1CCc2c(sc(NC(=O)CSc3ccc(F)cc3)c2-c2nc3ccccc3s2)C1", "Potency": "active: 16.4 µM"}, {"smiles": "CCOc1cc(CNc2ccccc2)cc(Br)c1OCc1ccc(F)cc1", "Potency": "inconclusive [inhibitor, partial curve, poor fit]"}, {"smiles": "Cc1ccc(NC(=O)CC(C)S(=O)(=O)c2ccc3c(c2)NC(=O)CO3)cc1C", "note": "(stereo unspecified)", "activity change, negative = growth inhibition": "inconclusive: -34.3% [inhibitor]"}, {"smiles": "CC1CN(C(=O)c2cc(Br)c(Br)s2)CC(C)O1", "note": "(stereo unspecified)", "Potency": "inactive"}, {"smiles": "C=CCn1c(SCC(=O)c2ccc(O)c(O)c2)nnc1-c1cccc(C)c1", "Potency": "active: 18.4 µM"}, {"smiles": "CCOc1ccc(-c2cn3c(n2)sc2cc(C(=O)NC4CCCc5ccccc54)ccc23)cc1", "note": "(stereo unspecified)", "Potency": "active: 5.17 µM"}, {"smiles": "CC(C)(C)SCCNS(=O)(=O)c1ccc(Cl)cc1", "Potency": "inconclusive [inhibitor, partial curve]"}, {"smiles": "CCOc1ccc(S(=O)(=O)N2CCCC(C(=O)N3CCOCC3)C2)cc1", "note": "(stereo unspecified)", "Potency": "inactive"}, {"smiles": "CC(=O)N(C(C)=O)n1c(/C=C/c2ccc([N+](=O)[O-])cc2)nc2ccccc2c1=O", "Potency": "inconclusive [inhibitor, single point]"}, {"smiles": "COc1ccc(/C=C/C(=O)c2ccc(O)cc2O)cc1", "Potency": "inconclusive [inhibitor, partial curve, poor fit]"}, {"smiles": "Cc1cc(Cl)c2oc(C(=O)N3CCN(C(=O)c4ccco4)CC3)c(C)c2c1", "Potency": "inconclusive [inhibitor, partial curve]"}, {"smiles": "CCOc1ccc(C(=O)NCC(=O)N2CCN(C/C=C/c3ccccc3)CC2)cc1OCC", "Potency": "active: 16.4 µM"}, {"smiles": "COc1ccc2c(CNCCc3ccccc3)c(C(=O)O)n(Cc3cccc(F)c3)c2c1", "Potency": "active: 18.4 µM"}, {"smiles": "CCN1C(=O)N(c2ccc(Cl)cc2)C(C)=CC1(C)C", "Potency": "inconclusive [inhibitor, single point]"}, {"smiles": "Cc1ccc(Cl)c2sc(N3CCN(C(=O)c4ccco4)CC3)nc12", "Potency": "active: 16.4 µM"}, {"smiles": "COc1ccc(-c2noc(-c3cccc(OC)c3OC)n2)cc1", "Potency": "inconclusive [inhibitor, single point]"}, {"smiles": "O=S(=O)(c1ccc2nc(N3CCN(c4ccccc4)CC3)ccc2c1)N1CCCCC1", "Potency": "inactive"}, {"smiles": "Clc1cccc(-c2nc3c4ccccc4ccn3c2Cc2ccsc2)c1", "Potency": "inconclusive [inhibitor, single point]"}, {"smiles": "COC(=O)CCCC1=CC2=C(c3ccccc3)C(=O)C(C)(OC(=O)C3CCCC3)C(=O)C2=CN1c1ccc(OC)cc1", "note": "(stereo unspecified)", "Potency": "inconclusive [inhibitor, single point]"}, {"smiles": "Cc1cc(N2CCN(C(=O)c3ccco3)CC2)n2nc(-c3cccc(Cl)c3)cc2n1", "Potency": "inconclusive [inhibitor, single point]"}, {"smiles": "CCOC(=O)/C(=N\\Nc1cc(Cl)ccc1Cl)N1CCN(CC)CC1", "Potency": "inconclusive [inhibitor, single point]"}, {"smiles": "CCCN(c1ccc(C(C)C)cc1)S(=O)(=O)c1c(C)[nH]c(=O)[nH]c1=O", "Potency": "inactive"}, {"smiles": "CC(=O)N1c2ccccc2-c2nc3ccccc3n2C1C", "note": "(stereo unspecified)", "Potency": "inactive"}, {"smiles": "COc1ccc(N(Cc2cccs2)C(=O)COc2cc(C)c(Cl)c(C)c2)cc1", "Potency": "inconclusive [inhibitor, single point]"}, {"smiles": "Cc1cccc(NC(=O)c2ccc(N(C)C3CCCCC3)c([N+](=O)[O-])c2)n1", "Potency": "active: 16.4 µM"}, {"smiles": "CC(C)C(=O)Nc1nnc(S(=O)(=O)N2CCCc3ccccc32)s1", "Potency": "inactive"}, {"smiles": "Cc1ccc(OCC(=O)Nc2nc(-c3ccccn3)cs2)c(C)c1", "Potency": "inconclusive [inhibitor, single point]"}]}]}
